In the supplement of paper PMC8183993:
Where “and” joins values, the source holds several entries; their conditions need not be identical. Identical values can stand only once. Counter-ions that a name gives are not always drawn. ± gives the standard deviation of the averaged measurements. Whole data set: some 3,200 compounds, median “nuclei count (viability) relative to DMSO” near 99, cut for the lowest 2% near 16. This is one part of the list.

test system: U2OS; assay: nuclei count (viability) relative to DMSO (% of DMSO); higher = more viable cells; conditions: 10 µM; 24 h
Description: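 Primary image-based screen in U2OS cells: compounds at 10 uM for 24 h, then a 1 h o-propargyl-puromycin (OPP) pulse, click labelling, and high-throughput microscopy. Mean cytoplasmic OPP intensity and nuclei count were normalised to DMSO wells within each plate (DMSO = 100) and averaged over triplicate plates.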

SMILES	nuclei count
COc1ccc(CCCOC(Cn2ccnc2)c2ccc(OC)cc2)cc1 (stereo not given)	56.2 and 54.1
C[C@H]1CC[C@@]2(OC1)O[C@H]1C[C@H]3[C@@H]4CC[C@@H]5C[C@@H](O[C@@H]6O[C@H](CO)[C@H](O)[C@H](O)[C@H]6O[C@@H]6O[C@H](CO)[C@@H](O)[C@H](O)[C@H]6O)CC[C@]5(C)[C@H]4CC[C@]3(C)[C@H]1[C@@H]2C [Timosaponin A-III]	37.6
C[C@@H](O)[C@H]1C(=O)N2C(C(=O)OCOC(=O)C(C)(C)C)=C(SC3CN(C4=NCCS4)C3)[C@H](C)[C@H]12 [Tebipenem pivoxil (L-084)]	97.3
CCCCOc1ccc(OCCCN2CCOCC2)cc1 [Pramoxine hydrochloride]	88.4
O=C(NCC1CCCCN1)c1cc(OCC(F)(F)F)ccc1OCC(F)(F)F (stereo not given) [Flecainide acetate]	105 ± 7.7
CC1CCc2cc(F)cc3c(=O)c(C(=O)O)cn1c23 (stereo not given) [Flumequine]	94.8
Cc1nc2c(OCc3ccccc3)cccn2c1CC#N	99
CCOC(=O)C1=C(C)NC(C)=C(C(=O)OC)C1c1cccc([N+](=O)[O-])c1 (stereo not given) [Nitrendipine]	101 ± 4
c1ccc(N2CCN(CCCOc3ccc4c(c3)OCO4)CC2)cc1 [BP 554 maleate]	97.5
Cc1cc(Cc2cc(C)cc(C(C)(C)C)c2O)c(O)c(C(C)(C)C)c1	96.3
CCn1cc(C(=O)O)c(=O)c2cc(F)c(N3CCNCC3)cc21 [Norfloxacin]	92.5
N[C@@H](C(=O)O)c1ccc(O)c(C(=O)O)c1 [(R)-3-Carboxy-4-hydroxyphenylglycine]	99.9
O=C(c1ccc(OCCN2CCCCC2)cc1)c1c(-c2ccc(O)cc2)sc2cc(O)ccc12 [Raloxifene hydrochloride]	105 ± 2.7
CC(C)[C@H](CO)Nc1nc(Nc2cc(N)cc(Cl)c2)c2ncn(C(C)C)c2n1 [Aminopurvalanol A]	38.4
CNC(=O)c1ccc(N2C(=S)N(c3cnc(C#N)c(C(F)(F)F)c3)C(=O)C23CCC3)cc1F	103
COc1cc(C[C@H]2C(=O)OC[C@@H]2Cc2ccc(OC)c(OC)c2)ccc1O [Arctigenin]	103
NS(=O)(=O)c1cc2c(cc1C(F)(F)F)NC(Cc1ccccc1)NS2(=O)=O (stereo not given) [Bendroflumethiazide]	108
CC(CN1c2ccccc2Sc2ccccc21)N(C)C (stereo not given) [Promethazine hydrochloride]	106
CNC(=O)c1ccccc1Sc1ccc2c(/C=C/c3ccccn3)n[nH]c2c1 [Axitinib]	46.1
CN(C)[C@@H]1CCc2[nH]c3ccc(NC(=O)c4ccc(F)cc4)cc3c2C1	89.9
CCOc1cc(N2CCC(O)CC2)ccc1Nc1ncc2c(n1)N(C)c1ccccc1C(=O)N2C	95.5
CC1(C)O[C@@H]2[C@@H](CO[C@@]3(COS(N)(=O)=O)OC(C)(C)O[C@@H]23)O1 [Topiramate]	83.8 ± 1.1
CC[C@H](C)[C@H](N)C(=O)N1CCSC1 [P32/98 hemifumarate salt]	106
COc1cc(NS(=O)(=O)c2ccc(N)cc2)nc(OC)n1 [Sulfadimethoxine]	89.9
CC[N+](CC)(CC(=O)Nc1c(C)cccc1C)Cc1ccccc1 [Denatonium benzoate]	106

SMILES	nuclei count
CCNc1nc(Nc2cc(F)c(C(=O)N3CCOCC3)cc2OC)ncc1C(F)(F)F	96.2
CN(C)c1cc(NC(=O)CNC(C)(C)C)c(O)c2c1C[C@H]1C[C@H]3[C@H](N(C)C)C(O)=C(C(N)=O)C(=O)[C@@]3(O)C(O)=C1C2=O [Tigecycline]	101
O=C1Nc2ccc(I)cc2/C1=C/c1cc(Br)c(O)c(Br)c1	95.8 and 96.4
O=C1N=C(O)NC1(c1ccccc1)c1ccccc1 [Phenytoin sodium (Dilantin)]	99.7
O=C(c1ccc(F)cc1)N1CCC[C@H](c2nc(-c3ccc(F)cc3)no2)C1	105
Cc1cccc(Nc2ccncc2S(=O)(=O)NC(=O)NC(C)C)c1 [Torsemide]	102
COc1cc2c(cc1OC)-c1c/c(=N\c3c(C)cc(C)cc3C)n(C)c(=O)n1CC2 [Trequinsin hydrochloride]	96
Cc1nc2ccc(NC(=O)Nc3ccnc4cccnc34)cc2o1	99.6
Oc1nc(-c2ccc(C(F)(F)F)cc2)nc2c1CSCC2	92.6 and 94.5
NC(=O)N1c2ccccc2CC(=O)c2ccccc21 [Oxcarbazepine]	99.6
CN(C)c1ccc(-c2nc3ncc(Cl)c(N4CCN(CC(=O)Nc5nccs5)CC4)c3[nH]2)cc1	94.7
Clc1cccc(Nc2nnc(-c3ccccc3)c3ccccc23)c1	96.3
CC(C)Cn1cnc2c(N)nc3ccccc3c21 [Imiquimod]	96.2 ± 2
CC(C)n1cnc2c(NCCc3ccc(O)cc3)nc(-c3csc4ccccc34)nc21 [StemRegenin 1]	95.2
CC(C)NC(=N)NC(=N)Nc1ccc(Cl)cc1 [Proguanil hydrochloride]	102
Cc1nc2c(O)cccc2c(=O)[nH]1	96.9
CCNC(=O)c1cc2c(-c3cc(OCCN4CCCC4)c(Cl)cc3Cl)nc(N)nc2s1	67
c1cc(CN2CCCNCCNCCCNCC2)ccc1CN1CCCNCCNCCCNCC1 [Plerixafor 8HCl (AMD3100 8HCl)]	103
CCCCc1nc2ccn(Cc3cccs3)c(=O)c2n1Cc1ccc(-c2ccccc2-c2nn[nH]n2)cc1	102
Cc1cc(C#N)cc(C)c1Oc1nc(Nc2ccc(C#N)cc2)nc(N)c1Br [Etravirine (TMC125)]	82.9
Cn1cncc1[C@@](N)(c1ccc(Cl)cc1)c1ccc2c(c1)c(-c1cccc(Cl)c1)cc(=O)n2C [Tipifarnib (Zarnestra)]	77.4
Cc1nnc(SCC2=C(C(=O)O)N3C(=O)[C@@H](NC(=O)Cn4cnnn4)[C@H]3SC2)s1 [Cefazolin sodium salt]	105
O=c1[nH]c(=O)n([C@H]2C[C@H](O)[C@@H](CO)O2)cc1C(F)(F)F [Trifluridine]	106
Cc1cc(F)c(Nc2ncnc3cc(OCc4ccccc4)ccc23)cc1O	85.2 and 99.2
COc1ccc2c3c1O[C@H]1C[C@@H](O)C=C[C@@]31CCN(C)C2 [Galanthamine hydrobromide]	102 ± 2.6
